# Results taken from PubChem BioAssay AID1159614 (National Center for Advancing Translational Sciences (NCATS), 2016).
# About 65 (0.1%) of roughly 45,000 compounds were called active. Calls come from the whole dose curve; as a rule, active = well fitted activation curve with a large enough effect; inconclusive = small, poorly fitted or top-dose-only effect; inactive = no such curve, though single readings can be large or run the other way. The list shows a part of the results.
# Target: Galactocerebrosidase (Homo sapiens) (UniProt P54803)
# Experiment: A Novel Cell-Based Assay to Identify Small Molecules for B -Galactocerebrosidase; note: nearly all actives have a fitted effect of over 65% in size; for activation: 0% is about no effect
# Details: 145M-Twi-hGALC-G270D cells, HMU-beta-Gal fluorescence, 48 h; series mostly up to 57.5 µM; activation: at the top concentration
# How it was run: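 qHTS, 1536-well; 145M-Twi-hGALC-G270D cells (WT line also made) in DMEM/F12 + 10% FBS; compound incubation on live cells; HMU-β-gal 0.1 mM final, pH 5.2, NaTC; carbonate stop; fluorescence increase = enhanced residual activity.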
# Potency is the fitted concentration of half-maximal effect.
# Sequence of UniProt P54803 (P54803 whole entry, looked up): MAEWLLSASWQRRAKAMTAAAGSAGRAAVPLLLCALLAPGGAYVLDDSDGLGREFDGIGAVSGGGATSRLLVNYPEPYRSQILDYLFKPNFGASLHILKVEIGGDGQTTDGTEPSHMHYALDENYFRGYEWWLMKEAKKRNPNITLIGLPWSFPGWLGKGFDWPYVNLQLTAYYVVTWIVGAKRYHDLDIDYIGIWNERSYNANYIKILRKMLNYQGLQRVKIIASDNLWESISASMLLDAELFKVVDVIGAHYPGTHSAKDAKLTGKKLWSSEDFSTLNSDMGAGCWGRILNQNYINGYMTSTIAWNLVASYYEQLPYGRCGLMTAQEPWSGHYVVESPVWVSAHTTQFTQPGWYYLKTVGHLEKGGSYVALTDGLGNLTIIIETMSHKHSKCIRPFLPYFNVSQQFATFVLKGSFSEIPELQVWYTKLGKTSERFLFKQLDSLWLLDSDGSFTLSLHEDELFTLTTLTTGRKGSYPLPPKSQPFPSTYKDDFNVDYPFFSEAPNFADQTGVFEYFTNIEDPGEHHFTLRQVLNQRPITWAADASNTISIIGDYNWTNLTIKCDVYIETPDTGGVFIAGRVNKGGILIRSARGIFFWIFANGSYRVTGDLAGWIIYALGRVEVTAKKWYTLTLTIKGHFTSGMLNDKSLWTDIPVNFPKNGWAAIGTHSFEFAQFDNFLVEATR
Structure (SMILES),activation,Potency
CC(C)c1ccc(C2Sc3ccccc3NC3=C2C(=O)c2ccccc23)cc1 (stereo not drawn),inactive: -16.6%,–
Cn1nnnc1SCCCNCc1ccc(Cl)cc1,inactive: -11.6%,–
COc1ccc(Nc2oc(-c3ccc(COc4cccc(C)c4)o3)nc2C#N)cc1,inactive: -4.31%,–
COC(=O)c1cc(NC(=O)CCc2c(C)nc3c(c(C)nn3C(C)(C)C)c2C)cc(C(=O)OC)c1,inactive: -7.26%,–
Cc1ccc(C(=O)N(Cc2ccco2)Cc2sccc2C)cc1,inactive: 7.16%,–
COc1ccc(-c2nc3c(c(SCC(=O)Nc4cccc(O)c4)n2)Cc2c(CO)cnc(C)c2O3)cc1,inactive: -3.92%,–
O=C(NCc1ccc(Cl)cc1)c1cc2c(s1)-c1ccccc1SC2,inactive: -6.83%,–
O=C(COc1ccccc1F)Nc1ccccc1C(=O)OCc1cc(=O)n2nc(C3CC3)sc2n1,inactive: 6.31%,–
CC1CCc2onc(C(=O)N3CCN(c4ccccc4)CC3)c2C1 (stereo not drawn),inactive: -1.99%,–
O=C(Nc1cc(Cl)ccc1Cl)c1cc(S(=O)(=O)NCCc2ccccc2)ccc1F,inactive: -18.6%,–
Cc1ccc(CN2COc3ccc4c(C)cc(=O)oc4c3C2)cc1,–,active: 25.1 µM
Cc1nc(N2CCOCC2)c2c(C(=O)N3CCN(c4ccccc4F)CC3)c(C)oc2n1,inactive: 3.03%,–
Cc1ccc(N2C(=O)CC(c3ccccc3F)C3=C2COC3=O)cc1Cl (stereo not drawn),inactive: -5.49%,–
c1ccc(-c2nc[nH]c2-c2ccccc2)cc1,inactive: -15.9%,–
CCc1ccc(NC(=O)C2CCN(c3nn4cc(-c5ccc(OC)cc5)nc4s3)CC2)cc1,inactive: -7.58%,–
CCCCCCCC(=O)OCC(O)CO (stereo not drawn),inactive: -6.95%,–
CCc1ccccc1NC(=O)Cn1c(=O)n(Cc2ccco2)c(=O)c2ccccc21,inactive: -10.3%,–
COc1ccc(-c2c(C#N)c(SCC(=O)Nc3cccc(Cl)c3)nc(C)c2C(=O)Nc2ccccc2)cc1OC,inactive: -20.6%,–
CCc1nnc2c(N3CCN(c4cccc(C)c4)C(C)C3)nc3ccccc3n12 (stereo not drawn),inactive: -12.2%,–
Cc1cccc(S(=O)(=O)Nc2cccc(-c3ccc(N4CCCCC4)nn3)c2)c1,inactive: -26.1%,–
CCN(CC)C(=O)Cn1c(=O)n(-c2ccc(Cl)c(Cl)c2)c(=O)c2c(C)c(C(=O)N(CC)CC)sc21,inactive: -9.18%,–
COc1cccc(Cc2nc3ccccc3nc2SCC(=O)NCCc2ccccc2)c1,inactive: -10%,–
COc1ccc(NC(=O)c2ccc3c(c2)N(Cc2cccc(Cl)c2)C(=O)c2ccccc2S3=O)cc1Cl (stereo not drawn),inactive: -7.18%,–
CC1CCN(c2nc3c(S(=O)(=O)c4ccccc4)nnn3c3ccc(Cl)cc23)CC1,inactive: -3.03%,–
COc1ccc(C2C=C(c3ccc(F)cc3)Nc3nc(-c4ccc(Cl)cc4)nn32)cc1 (stereo not drawn),inactive: -9.78%,–

Structure (SMILES),activation,Potency
CCc1ccc(NC(=O)CCn2c(-c3ccc(OC)cc3)cc(C(C)=O)c2C)cc1,inactive: -8.91%,–
COc1ccc(-n2nc3c(N4CCC(C(=O)NCc5cccc(F)c5)CC4)nnc(C)c3c2C)cc1,inactive: 4.26%,–
CC(=O)c1cccc(NC(=O)CN2C(=O)c3ccccc3Sc3ncccc32)c1,inactive: -8.24%,–
Cc1c(C)n(Cc2ccccc2)c2ccc(C(=O)NCc3ccccc3F)cc12,inactive: -5.64%,–
COc1ccccc1NC(=O)NCCCN1CCN(c2ccc(F)cc2)CC1,inactive: -2.77%,–
O=C(c1cnn(-c2cccc(F)c2)c1-n1cccc1)N1CCN(c2ccccc2F)CC1,inactive: -14.4%,–
Cc1ccc(-c2nc3ccccc3[nH]2)cc1NC(=O)COc1ccccc1[N+](=O)[O-],inactive: -19.5%,–
CCS(=O)(=O)c1ccc(OC)c(C(=O)OC)c1,inactive: -9.83%,–
COc1ccc(C(=O)Nc2cccc(-c3cn4ccsc4n3)c2)cc1OC,inactive: -20.2%,–
CCCN1CCN(CCCNC(=O)c2ccc3c(c2)sc2nc(-c4ccc(OC)cc4)cn23)CC1,inactive: -9.61%,–
CCOC(=O)C1CCN(C(=O)Cn2nc(C)n3c(cc4sccc43)c2=O)CC1,inactive: -13.9%,–
Cc1ccccc1Cn1c(CN2CCC(C(=O)NCc3cccnc3)CC2)cc2ccccc21,inactive: -10.4%,–
Cn1c(SCC(=O)N2CCOCC2)ncc(C(=O)Nc2ccccc2)c1=O,inactive: -7.46%,–
Cc1ccc2c(CNCC(C)c3ccccc3)c(C(=O)O)n(Cc3ccccc3C)c2c1 (stereo not drawn),inactive: 1.37%,–
CC1=C(C(=O)NCc2ccccc2Cl)C2(CCCCCC2)OC1=O,inactive: -2.76%,–
Cc1ccc(CNC(=O)CCNS(=O)(=O)c2ccc3c(c2)oc(=O)n3C)cc1,inactive: -9.94%,–
Cc1oc(-c2cccc(Cl)c2)nc1CN1CCC(C(=O)NC(C)C)CC1,inactive: 2.23%,–
Cc1cc(C)c(S(=O)(=O)Nc2ccc3oc(C)c(C(=O)OC(C)C)c3c2)cc1C,inactive: -26.1%,–
O=C(COc1ccc(Br)cc1Br)Nc1ccc(S(=O)(=O)Nc2ncccn2)cc1,inactive: -12%,–
Cc1ccc(Cl)cc1NC(=O)Cn1c(=O)cc(C)c2c(C)nn(C)c21,inactive: -16%,–
Cc1ccc(NC(=O)CC2Oc3ccc(C)cc3NC2=O)c(C)c1 (stereo not drawn),inactive: -17.6%,–
COc1cccc(Nc2nnc(-c3cc4ccc(O)cc4oc3=O)s2)c1,inactive: -17%,–
CCOc1ccc(NC(=O)Cn2c(=O)n(CCc3ccccc3)c(=O)c3c4c(sc32)CCCC4)cc1,inactive: -3.36%,–
COc1cccc(C2CC(=O)Nc3c2c(=O)n(C)c2nc4ccccc4n32)c1OC (stereo not drawn),inactive: -3.22%,–
O=C(CCn1c(=O)c2sccc2n(Cc2ccc(F)cc2)c1=O)NCc1ccc2c(c1)OCO2,inactive: -1.37%,–

Structure (SMILES),activation,Potency
Cc1ccc(-n2nc3cc(C)c(NC(=O)c4ccc(-c5ccccc5)o4)cc3n2)cc1,inactive: -6.82%,–
CCOC(=O)C1=C(CN2CCN(c3ccc(Cl)cc3)CC2)NC(=O)NC1c1ccc(OC)cc1 (stereo not drawn),inactive: -19.6%,–
O=C(Cn1ncc2c3ccccc3n(Cc3ccccc3)c2c1=O)NCc1cccs1,inactive: -18%,–
Cc1ccc(Cl)cc1N1CCN(C(=O)Cn2cnc3onc(-c4ccc(F)cc4)c3c2=O)CC1,inactive: -26.3%,–
CCc1nc2ccc(C(=O)N3CCN(c4ccccc4F)CC3)cc2nc1CC,inactive: -3.65%,–
COc1cccc2sc(NC(=O)c3ccc4c(c3)OCCO4)nc12,inactive: -5.52%,–
CC(=O)c1ccc(NC(=O)Cn2nc(C(F)(F)F)c3c2CCC3)cc1,inactive: -7.27%,–
Cc1ccc(CSc2c(C)cnc3c2c(=O)n(C)c(=O)n3C)cc1,inactive: -9.86%,–
CCCCNC(=O)CCC1N=C2c3ccccc3N=C(SCC(=O)NCCc3ccc(OC)c(OC)c3)N2C1=O (stereo not drawn),inactive: -25.6%,–
CCN(CC)CCNC(=O)CCn1c(=O)c2cccn2c2cccnc21,inactive: 3.62%,–
Cc1ccc2nc(-c3ccc(NC(=O)Cc4ccccc4)cc3)sc2c1,inactive: -12.2%,–
CN1c2ccc(Cl)cc2-c2nc(SCC(=O)NCc3ccc(F)cc3)ncc2S1(=O)=O,inactive: -19.9%,–
O=C1CCCc2cc(S(=O)(=O)NCC3CCC(C(=O)Nc4ccc(Cl)cc4)CC3)ccc2N1 (stereo not drawn),inactive: -13.9%,–
Cc1cc(Nc2ccc(Br)cc2)n2nc(-c3ccccc3C)nc2n1,inactive: -0.607%,–
CC1=C(C(=O)Nc2ccc(C)cc2C)C(c2ccccc2)n2nc(SCC(=O)c3ccc(C)cc3)nc2N1 (stereo not drawn),inactive: 2%,–
O=C(CSc1nc2ccsc2c(=O)n1Cc1ccc(F)cc1)NCc1ccc(Cl)cc1,inactive: -20.5%,–
COc1ccc(NC(=O)Cn2c(=O)oc3ccccc32)cc1,inactive: -7.27%,–
CCc1ccccc1NC(=O)CCNS(=O)(=O)c1ccc2c(c1)CCCC(=O)N2,inactive: -21.1%,–
CCCCCCOc1ccc(/C=C/C(=O)Nc2sc3c(c2C(=O)OC)CCC3)cc1OC,inactive: -37.1%,–
O=C(NCC(c1ccc2c(c1)OCO2)N1CCOCC1)c1ccccc1 (stereo not drawn),inactive: -29.4%,–
Cc1c(O)nc(SCC(=O)Nc2ccc(Cl)cc2Cl)n(-c2ccc(F)cc2)c1=O,inactive: -1.71%,–
CCC(C)NC(=O)c1cc2cc(S(=O)(=O)N3CCCCC3)ccc2n1C (stereo not drawn),inactive: -3.96%,–
CCN1CCN(c2ncc3c(n2)CCN(Cc2cc(Br)cs2)C3)CC1,inactive: -7.05%,–
CCC(C)c1ccc(OCC(=O)Nc2cccc3ccc(C)nc23)cc1 (stereo not drawn),inactive: -13.2%,–
Cc1nn(C)c2c1c(C(F)(F)F)cc(=O)n2CC(=O)NCc1ccc(OC(C)C)cc1,inactive: 2.74%,–

Structure (SMILES),activation,Potency
Cc1ccc(CNS(=O)(=O)c2ccc(N3CCCCS3(=O)=O)cc2)cc1,inactive: -15.6%,–
O=C(CNC(=O)c1ccc(Cl)cc1)OCc1cc(=O)n2nc(C3CC3)sc2n1,inactive: -4.88%,–
COc1cc(Cn2c(=O)oc3ccc(C)cc32)ccc1OCCC(C)C,inactive: -52.7%,–
CC(C)(C)c1ccc(S(=O)(=O)N2CCC(Oc3ccc(-n4cnnn4)cc3)CC2)cc1,inactive: 4.73%,–
C/C(=N/NC(=O)c1ccncc1)C(=O)O,inactive: -16.4%,–
Cc1cn(C)c(CC(=O)NCc2cccc(Cl)c2)c1C(=O)O,inactive: -7.33%,–
CC(C)(C)c1ccc(CSC2=Nc3ccccc3C3=NC(CC(=O)NCc4cccs4)C(=O)N23)cc1 (stereo not drawn),inactive: -19.2%,–
Cc1ccc(Cn2c(C(=O)O)c(CNCc3ccc(C)o3)c3ccc(C)cc32)cc1,inactive: -4.54%,–
Cc1cccc(NC(=O)CN2C(=O)C3(SCC(=O)N3c3ccccc3)c3ccccc32)c1 (stereo not drawn),inactive: -14.8%,–
NC(=O)c1cnccn1,inactive: -16.2%,–
Cc1ccc(S(=O)(=O)N2CCN(Cc3ccccc3Cl)CC2)cc1,inactive: -12.2%,–
Cc1ccc(Cn2c(CCNC(=O)c3cccc(C)c3)nc3ccccc32)cc1,inactive: -16.1%,–
CCOC(=O)c1c(NC(=O)c2cc(=O)c3cc(C)ccc3o2)sc2c1CCCC2,inactive: -21.3%,–
COc1ccc(Cl)cc1NC(=O)CSC1=Nc2ccccc2C2=NC(CCC(=O)NCc3ccco3)C(=O)N12 (stereo not drawn),inactive: -17.8%,–
CCN(CC)c1ccc(NC(=O)CN2CCN(CC(=O)Nc3ccc(Cl)cc3)CC2)cc1,inactive: -11.8%,–
Cc1ccc2oc(C(=O)Nc3sc4c(c3C(=O)NCC3CCCO3)CCC4)cc(=O)c2c1 (stereo not drawn),inactive: -5.71%,–
COc1ccc(NC(=O)c2cccc(N3CCCS3(=O)=O)c2)c(OC)c1,inactive: 4.77%,–
CC(C)Cn1cc(NC(=O)NCc2cccc(Cl)c2)c2ccccc2c1=O,inactive: -25.8%,–
O=C(NCCC1=CCCCC1)c1ccc2c(c1)sc1nc(-c3ccc(F)cc3)cn12,inactive: -18.3%,–
O=C(NCCc1ccccc1)c1ccc2c(c1)N(Cc1ccc(F)cc1)C(=O)CS2,inactive: -27.7%,–
CC(NC(=O)c1cc2c(=O)n3ccccc3nc2n(C(C)C)c1=N)c1ccccc1 (stereo not drawn),inactive: -19.1%,–
CC(NC(=O)Cn1c(=O)oc2cc(S(=O)(=O)N3CCCCCC3)ccc21)c1ccccc1 (stereo not drawn),inactive: -16.9%,–
COC(=O)c1ccccc1NC(=O)c1nc(-c2ccc(C)cc2)n2c1CCCCC2,inactive: -6.59%,–
